Reference: the RNAGym collection of RNA variant scans (doi:10.1101/gad.245936.114)
Variants at the background level are over-represented here.

B1: tRNA (parent)
chain: CUCUCGGUAGCCAAGUUGGUUUAAGGCGCAAGACUUUAAUUUAUCACUACGAAAUCUUGAGAUCGGGCGUUCGACUCGCCCCCGGGAGAUUUUUUCCUCGAGCAA

Variants of: B1
Assay: nonsense suppression (GFP-seq) (ratio to wild type); higher = more function; SUP4oc tRNA, yeast GFP reporter sort-seq
Method in brief: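 Sorted GFP/RFP bins of yeast were each Illumina-sequenced with a phred ≥30 cutoff; the cells held a genome-integrated ochre-suppressor tRNA variant from a library with ~3% random mutations, a galactose-driven GFP ochre reporter, and RFP. Culture was in raffinose/galactose medium containing 80 mg/L adenine. Nonsense suppression, termed GFPSEQ, is the median GFP/RFP of the bins weighted by each variant's estimated cell share per bin, relative to the unmutated parent tRNA, for variants reaching ≥100 reads and ≥30 cells.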

Row | Variant | nonsense suppression
1 | CUCUCGGUUGCCAAGUUGGUUUAAGGCGCAAGACUUUAAUUUAUCACUACGAAAUCCUGAGAUCGGGCGCUCGACUCGCCCCCGGGAGAUUUUUUCCUCGAGCAA [A9U U57C U70C] | ≤ 0.026
2 | CUCUCGGUAACCAUGUUGGUUUAAGGCGCAAGACUUUAAUUUAUCACUACGAAAUCUUGAGAUCGGGCGUUCGACUCGCCCCCGGGUGAUUUUUUCCUCGAGCAA [G10A A14U A87U] | ≤ 0.026
3 | CUCUCGGUAACCACGUUGGUUUAAGGCGCAAGACUUUAAUUUAUCACUACGAAAUCUUGAGAUCGGGCGUUCGACUCGCCCACGGGAGAUUUUUUCCUCGAGCAA [G10A A14C C82A] | ≤ 0.026
4 | CUCUCGGUUGCCAAGUUGGUUUAAGGCGCAAGACUUUAAUUUAUCACUACGAAAUCGUGAGAUCAGGCGUUCGCCUCGCCCCCGGGAGAUUUUUUCCUCGAGCAA [A9U U57G G65A A74C] | ≤ 0.026
5 | CUCUCGGUAACCAAGUUGGUUUGUGGCGCAAGACUUUAAUUUAUCACUACGAAAUCUUGAGAUCGGGCGUUCGACUCGCCCCCGGGAGAUUUUUUCCUCGAGCAA [G10A A23G A24U] | ≤ 0.026
6 | CUCUCGGUUGCCAAGUUGGUUUAAGGCGCAAGACUUUAAUUUAUCACUACGAAAUCUUGAGAACGGGCGUUCGACUCGCCCGCGGGAGAUUUUUUCCUCGAGCAA [A9U U63A C82G] | ≤ 0.026
7 | CUCUCGGUUGCCAAGUUGGUUUAAGGCGCAAGACUUUAAUUUAUCACUACGAAAUCGUGAGAUCGGGCGUUCGACUCGCCCCCGGGAGAUUUUUUCCUCGAGCAA [A9U U57G] | ≤ 0.026
8 | CUCUCGGUAACCAGGUUGGUUUAAGGCGCAUGACUUUAAUUUAUCACUACGAAAUCUUGAGAUCGCGCGUUCGACUCGCCCCCGGGAGAUUUUUUCCUCGAGCAA [G10A A14G A31U G66C] | ≤ 0.026
9 | CUCUCGGUAACCUAGUUGGUUUAAGGCGCAAGACUUUAAUUUAUCACUACGAAAUCUUGAGAUCUGGCGUUCUACUCGCCCCCGGGAGAUUUUUUCCUCGAGCAA [G10A A13U G65U G73U] | ≤ 0.026
10 | CUCUCGGUUGCCAAGUUGGUUUAAGGCGCAAGACAUUAAUUUAUCACUACGAAAUCUUGCUAUCGGGCGUUCAACUCGCCCCCGGGAGAUUUUUUCCUCGAGCAA [A9U U35A A60C G61U G73A] | ≤ 0.026
11 | CUCUCGGUUGCCAAGUUGGUUUAAGGCGCAAGACUUUAAUUUAUCACUACGAAAUCUUGAGAUCGGGCGAUCGACUCGCCCCCGGGAGAUUUUUUCCUCGAGCAA [A9U U70A] | ≤ 0.026
12 | CUCUCGGUUGCCAAGUUGGUUUAAGGCGCAAGACUUUAAUUUAUCACUACGAAAUCUUGAGAUCGGGCGCUCGACUCGCCCCCGGGAGAUUUUUUCCUCGAGCAA [A9U U70C] | ≤ 0.026
13 | CUCUCGGUAACCAAGUUGGUUUACGGCGCAAGACUUUAAUUUAUCACUACGAAAUCUUGAGAUCGGGCGUUCGCCUCGCCCCCGGGAGAUUUUUUCCUCGAGCAA [G10A A24C A74C] | ≤ 0.026
14 | CUCUCGGUAACCCAGUUGGUUUAAGGCGCAAGACUUUAAUUUAUCACUACGAAAUCUUGAGAUCGGGCGUUCGACUCGCCCCCGGGAGAUUUUUUCCUCGAGCAA [G10A A13C] | 0.0618
15 | CUCUCGGUUGCCAAGUUGGUUUAAGGCGCAAGACUUUAAUUUAUCACUACGAAACCUUUACAUCGGGCGUUCGACUCGCCCCCGGGAGAUUUUUUCCUCGAGCAA [A9U U55C G59U G61C] | ≤ 0.026
16 | CUCUCGGUAACCAUGUUGGUUUAUGGCGCAAGACCUUAAUUUAUCACUACGAAAUCUUGAGAUCGGGCGUUCGACUCGCCCCCGGGAGAUUUUUUCCUCGAGCAA [G10A A14U A24U U35C] | ≤ 0.026
17 | CUCUCGGUAACCAAGUUGGUUUCAGGCGCAAGACUUUAAUUUAUCACUACGAAAUCUUGAGAUCGGGCGUUCGACUCGCCCCCGGGAGAUUUUUUCCUCGAGCAA [G10A A23C] | ≤ 0.026
18 | CUCUCGGUAACCACGUUGGUUUAAGGCGCAAGACUUUAAUUUAUCACUACGAAAUCUUGAGAUCGGGCGUUCGCCUCGCCCCCGGGAGAUUUUUUCCUCGAGCAA [G10A A14C A74C] | ≤ 0.026
19 | CUCUCGGUAACCAAGUUGGUUUUAGGCGCAAGACUUUAAUUUAUCACUACGAAAUUUUGAGAUCGGGUGUUCGACUCGCCACCGGGAGAUUUUUUCCUCGAGCAA [G10A A23U C56U C68U C81A] | ≤ 0.026
20 | CUCUCGGUUGCCAAGUUGGUUUAAGGCGCAAGACUUUAAUUUAUCACUACGAAAUCUCGAGAUCGGGCGUUCGACGCGCCCCCGGGAGAUUUUUUCCUCGAGCAA [A9U U58C U76G] | ≤ 0.026
21 | CUCUCGGUUGCCAAGUUGGUUUAAGGCGCAAGACUUUAAUUUAUCACUACGAAAUCUUGAGAUCGGGCGAUCGACUCGCCCCCGGGAGCUUUUUUCCUCGAGCAA [A9U U70A A89C] | ≤ 0.026
22 | CUCUCGGUUGCCAAGUUGGUUUAAGGCGCAAGACAUUAAUUUAUCACUACGAAAUCUUGAGAUCGGGCGUUCGACUCGCCCCCGGGAGAUUUUUUCCUCGAGCAA [A9U U35A] | ≤ 0.026
23 | CUCUCGGUUGCCAAGUUGGUUUAAGGCGCAAGACUUUAAUUUAUCACUACGAAAUCGUGAGAUCCGGCGUUCGACUCGCCCCCGGGAGAUUUUUUCCUCGAGCAA [A9U U57G G65C] | ≤ 0.026
24 | CUCUCGGUAACCACGUUUGUAUAAGGCGCAAGACUUUAAUUUAUCACUACGAAAUCUUGAGAUCGGGCGUUCGACUCGCCCCCAGGAGAUUUUUUCCUCGAGCAA [G10A A14C G18U U21A G84A] | ≤ 0.026
25 | CUCUCGGUUGCCAAGUUGGUUUAAGGCGCAAGACUUUAAUUUAUCACUACGAAAUCGUGAGAUCGGGCGUUCGACUAGCCCCCGAGAGAUUUUUUCCUCGAGCAA [A9U U57G C77A G85A] | ≤ 0.026
26 | CUCUCGGUUGCCAAGUUGGUUUAAGGCGCAAGACUUUAAUUUAUCACUACGAAAUCUUGAGACCGGGCGUUCGACUCGCCCCCGGGAGAUUUUUUCCUCGAGCAA [A9U U63C] | 0.0507
27 | CUCUCGGUUGCCAAGUUGGUUUAAGGCGCAAGACUUUAAUUUAUCACUACGAAAUCUUGAGAUCGGGCGUUCGACGCGCCCCCGCGAGAUUUUUUCCUCGAGCAA [A9U U76G G85C] | ≤ 0.026
